Test in all cases: Viability of human cancer cell lines after 72 h of drug (GDSC screen)
Compound in assay [1]: C=CCNC1=C2C[C@@H](C)C[C@H](OC)[C@H](O)[C@@H](C)/C=C(\C)[C@H](OC(N)=O)[C@@H](OC)/C=C\C=C(/C)C(=O)NC(=CC1=O)C2=O [17-AAG]
The note with it: top dose 1 µM. Here is the method: (§1)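 Human cancer cell lines in 384-well plates, medium with 10% serum, drug for 72 h over a 256-fold dose range (nine 2-fold or five 4-fold steps up to the top dose). Adherent lines were fixed and stained with the nucleic acid dye Syto60, suspension lines read with resazurin; signal relative to control wells, capped at 0 and 100%. One two-parameter sigmoid per drug and line, fitted in a mixed model over all curves with the slope shared within a line.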

Compound in assay [2]: CCc1cc(-c2n[nH]c(C)c2-c2ccc3c(c2)OCCO3)c(O)cc1O [CCT018159]
Particulars: top dose 10 µM; top dose inferred. Here is the method:
as §1

Compound in assay [3]: CN(C)Cc1cccc(N=C(c2ccccc2)c2c(O)[nH]c3cc(C(=O)N(C)C)ccc23)c1 [BIX02189]
Particulars: top dose 20 µM; top dose inferred. Here is the method:
as §1

Compound in assay [4]: COC(=O)CNC(=O)C(=O)OC [Dimethyloxalylglycine]
The note with it: top dose 4000 µM; top dose inferred. Here is the method:
as §1

Compound in assay [5]: COc1cccc2c1C(=O)c1c(O)c3c(c(O)c1C2=O)C[C@@](O)(C(=O)CO)C[C@@H]3O[C@H]1C[C@H](N)[C@H](O)[C@H](C)O1 [Doxorubicin]
Particulars: top dose 1.024 µM. Here is the method:
as §1

Compound in assay [6]: COc1cccc2cc(-c3nc([C@H]4CC[C@H](C(=O)O)CC4)n4ncnc(N)c34)[nH]c12 [OSI-027]
Particulars: top dose 20 µM. Here is the method:
as §1

Compound in assay [7]: CS(=O)(=O)c1ccc(C(=O)Nc2ccc(Cl)c(-c3ccccn3)c2)c(Cl)c1 [Vismodegib]
The note with it: top dose 10 µM; top dose inferred. Here is the method: as §1

Compound in assay [8]: Cc1cnc(Nc2ccc(F)cc2Cl)nc1-c1c[nH]c(C(=O)N[C@H](CO)c2cccc(Cl)c2)c1 [VX-11e]
The note with it: top dose 5.12 µM; top dose inferred. Here is the method:
as §1

Compound in assay [9]: Cc1cnc(Nc2ccc(OCCN3CCCC3)cc2)nc1Nc1cccc(S(=O)(=O)NC(C)(C)C)c1 [TG101348]
The note with it: top dose 10.24 µM. Here is the method: as §1

Compound in assay [10]: O=C(c1ccc(C(=O)N2CCC(N3CCCC3)CC2)c(Nc2ccccc2)c1)N1CCC(N2CCCC2)CC1 [UNC1215]
Particulars: top dose 1 µM; top dose inferred. Here is the method: as §1

The record followed here is the supplement of paper PMC4967469.

For orientation: IC50 means the concentration that gives 50% inhibition.

Lines with a small IC50 respond at low doses; where the fit passes the top or lowest dose, that dose stands as a limit. AUC, from the same fit, is the share of area under the viability curve across the 256-fold dose range; the more sensitive the line, the further below 1. For part of these data: The top dose, if marked as inferred, comes from the curve model; the source does not state it. Where only a bound is given, the exact number is not on record here.

For the cell line “NCI-H2009 (lung adenocarcinoma, adherent)”, the AUC in assay [1] is 0.665; in [2] it was 0.954; in assay [3] it was 0.952; in assay [4], 0.531; in assay [5], 0.494; in assay [6] it was 0.966. Moreover, the AUC was determined as 0.97 in [7], 0.9 in assay [8], 0.981 in assay [9] and 0.962 in assay [10]. Moreover, the IC50 in assay [1] is 0.185 µM; in assay [2], over 10 µM; in assay [3], over 20 µM; in assay [4], 305 µM; in [5], 0.0616 µM; in assay [6] it was over 20 µM. Moreover, the half-maximal inhibitory concentration (IC50) was over 10 µM in assay [7], over 5.12 µM in [8], over 10.2 µM in [9] and over 1 µM in [10].
Regarding WM793B (melanoma, adherent), the AUC in assay [1] came to 0.384; in assay [2], 0.895; in assay [3], 0.954; in assay [4], 0.324; in assay [5], 0.269; in assay [6], 0.46. The AUC was 0.934 in assay [7], 0.926 in assay [8], 0.787 in assay [9] and 0.98 in assay [10]. Moreover, the IC50 was 0.029 µM in [1]; over 10 µM in assay [2]; over 20 µM in assay [3]; 76.3 µM in assay [4]; 0.013 µM in [5]; 0.958 µM in assay [6]. Moreover, the IC50 in [7] is over 10 µM; in assay [8], over 5.12 µM; in assay [9] it was 4.96 µM; in assay [10], over 1 µM.
As for “NCI-H2172 (non-small cell lung carcinoma, adherent)”, the AUC turned out to be 0.733 in assay [1]; 0.967 in assay [2]; 0.946 in [3]; 0.519 in assay [4]; 0.744 in assay [5]; 0.819 in assay [6]. For the same cell line, the AUC turned out to be 0.982 in [7], 0.965 in assay [8], 0.912 in assay [9] and 0.981 in [10]. Moreover, the IC50 is 0.373 µM in assay [1]; over 10 µM in assay [2]; over 20 µM in [3]; 287 µM in assay [4]; 0.422 µM in [5]; 17 µM in assay [6]. In addition, the half-maximal inhibitory concentration (IC50) in [7] is over 10 µM; in [8], over 5.12 µM; in [9] it was over 10.2 µM; in assay [10], over 1 µM.
As for “NCI-H520 (lung squamous cell carcinoma, adherent)”, the AUC in assay [1] worked out at 0.734; in [2] it was 0.946; in assay [3] it was 0.733; in assay [4] it was 0.601; in [5], 0.735; in [6] it was 0.232. In addition, the AUC in assay [7] was determined as 0.987; in [8], 0.957; in assay [9] it was 0.719; in [10], 0.986. In addition, the half-inhibitory concentration (IC50) in assay [1] was 0.297 µM; in [2], over 10 µM; in [3] it was 5.91 µM; in [4] it was 478 µM; in assay [5], 0.308 µM; in [6], 0.202 µM. In addition, the concentration for half-maximal inhibition (IC50) is over 10 µM in [7], over 5.12 µM in assay [8], 2.73 µM in [9] and over 1 µM in assay [10].
For BE2-M17 (neuroblastoma, adherent), the AUC stood at 0.9 in assay [1]; 0.958 in assay [2]; 0.983 in assay [3]; 0.84 in assay [4]; 0.842 in [5]; 0.842 in [6]. Moreover, the AUC in [7] worked out at 0.987; in assay [8], 0.977; in [9] it was 0.901; in assay [10], 0.986. Further, the IC50 is over 1 µM in assay [1]; over 10 µM in assay [2]; over 20 µM in assay [3]; 2870 µM in assay [4]; 0.753 µM in assay [5]; 14.6 µM in [6]. The half-inhibitory concentration (IC50) in [7] was over 10 µM; in [8], over 5.12 µM; in assay [9] it was over 10.2 µM; in assay [10], over 1 µM.
Regarding “NCI-H647 (non-small cell lung carcinoma, adherent)”, the AUC in assay [1] was determined as 0.344; in assay [2] it was 0.841; in assay [3], 0.9; in [4], 0.478; in assay [5] it was 0.635; in assay [6], 0.373. Besides, the AUC in assay [7] was determined as 0.981; in [8], 0.96; in assay [9] it was 0.64; in assay [10], 0.983. The IC50 in assay [1] was 0.0225 µM; in assay [2], 7.45 µM; in assay [3] it was over 20 µM; in [4], 217 µM; in assay [5], 0.154 µM; in assay [6], 0.549 µM. For the same cell line, the concentration for half-maximal inhibition (IC50) in assay [7] was over 10 µM; in assay [8], over 5.12 µM; in assay [9], 1.59 µM; in assay [10] it was over 1 µM.
